Article PMC12040169 (PLOS Biology, 2025)
The list shows a part of the results.

Each compound was assayed on T1, C. trachomatis L2/434/Bu expressing GFP (CTL2-GFP). Settings: total inclusion area; 28.5 h, 10 µM; inhibitor.
T1 construct: L2/434/Bu GFP intracellular growth in HeLa cells
Design: species or system HeLa; C. trachomatis total inclusion area by high-content imaging, normalised to DMSO
Method in brief: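 After bulk GFP and resorufin fluorescence reads, cells were fixed, stained with Hoechst and imaged by high-content microscopy. Inclusion area and number (GFP) stood in for chlamydial growth, nuclei count (Hoechst) for host cell viability. MICs were derived as for the bulk readout.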
`Cc1cc(-c2ccc(=O)n(CCNC(=O)c3cccs3)n2)c(C)o1` [CBK284461] was tested, and the “% of control remaining” value was 102.63.
In the case of `O=C(NCCCC1CCOC1)c1[nH]nc2c1CCCCC2` (stereo not shown) [CBK283154], the “% of control remaining” value is reported as 100.325.
`CC(=O)NCc1cccc(-c2cc(C(=O)NCCc3cccc(OC(F)(F)F)c3)cnc2-c2ccc(Cl)cc2)c1` [CBK164414] was tested, and the “% of control remaining” value was 77.2388.
With `Cc1ccc2[nH]nc(C(=O)NC(C)c3ccccn3)c2c1` (stereo not shown) [CBK281887] the “% of control remaining” value was 103.428.
For `CN(C)CCN(C)c1cncc(-c2ccc(F)cc2F)n1` [CBK065652], the “% of control remaining” value was 105.698.
With `O=C(O)c1ccc(COc2ccccc2/C=N/O)cc1` [CBK288481] the “% of control remaining” value was 64.1597.
`O=C(Nc1nc2ccc(Br)cc2s1)C1CC2CCC1C2` (stereo not shown) [CBK026397] was tested, and the “% of control remaining” value was 60.7285.
With `CCOC(=O)c1c(NS(=O)(=O)c2cc(Cl)sc2Cl)sc2c1CCCC2` [CBK050397] the “% of control remaining” value was 83.2229.
With `CSC1=Nc2cc(Cl)ccc2SCC1` [CBK019829] the “% of control remaining” value was 17.9946.
In the case of `Cc1nc2cc(OCc3ccc(Cn4ccn(C(=O)CCC5CCCC5)c4=O)cc3)ccc2s1` [CBK106641], the “% of control remaining” value is reported as 97.6223.
`OCc1cccc(-c2nccnc2NCc2ccc(F)cc2)c1` [CBK037670] was tested, and the “% of control remaining” value was 85.3868.
With `Cc1nc(-c2ccc(S(=O)(=O)NCC3CC3)s2)cs1` [CBK085873] the “% of control remaining” value was 78.0698.
`Cc1cccc(C(=O)O)c1NC(=O)Cc1cccc2ccccc12` [CBK268361] was tested, and the “% of control remaining” value was 91.7972.
In the case of `O=c1c2cc(F)ccc2nc2n1CCN(Cc1ccccc1)CC2` [CBK285300], the “% of control remaining” value is reported as 74.6773.
With `Cc1ccc(Oc2cc(C)c([N+](=O)[O-])cn2)c(Br)c1` [CBK002823] the “% of control remaining” value was 82.3126.
`CCCn1nc(C)c(-c2cncn2CC(C)N2CCCCC2)c1C` (stereo not shown) [CBK281802] was tested, and the “% of control remaining” value was 84.3043.
In the case of `CCCCOc1ccccc1C1CC(=O)Nc2c(-c3ccccc3F)csc21` (stereo not shown) [CBK294439], the “% of control remaining” value is reported as 60.6439.
`OCCN(CC#CCC(O)(c1ccccc1)c1ccccc1)CCO` [CBK263623] was tested, and the “% of control remaining” value was 104.199.
In the case of `O=C(Nc1ccccc1-n1ccnc1)c1ncoc1-c1ccc(F)cc1` [CBK282417], the “% of control remaining” value is reported as 114.285.
For `NC(=O)CN1CCCN(c2nccc(OCC3COc4ccccc4O3)n2)CC1` (stereo not shown) [CBK084041], the “% of control remaining” value was 72.5296.
`CC(=O)c1[nH]c(C)c(C(=O)N(C)Cc2cc(-c3ccncc3)no2)c1C` [CBK306681] was tested, and the “% of control remaining” value was 33.5911.
With `CCOC(=O)c1csc(COc2ccccc2Cl)n1` [CBK057782] the “% of control remaining” value was 115.857.
`CC(=O)N1CCC(C(=O)Nc2cnc(-c3ccc(F)cc3)c(-c3ccco3)n2)CC1` [CBK037038] was tested, and the “% of control remaining” value was 156.649.
With `CCNc1nc(-c2cccc(/C=C/C(=O)O)c2)cn2ccnc12` [CBK066373] the “% of control remaining” value was 136.016.
With `O=C(O)CCSc1nccc(C(F)(F)F)n1` [CBK107864] the “% of control remaining” value was 89.8519.
`COc1ccc(CCCC(=O)Nc2cc(N3CCNCC3)nc(SC)n2)cc1OC` [CBK050261T] was tested, and the “% of control remaining” value was 72.528.
With `CN1CCN(C(=O)c2nc(SCc3ccccc3)ncc2Cl)CC1` [CBK269003] the “% of control remaining” value was 75.7045.
`COc1ccc(CC(=O)N2CCCC2c2nnc3ccccn23)cc1` (stereo not shown) [CBK304719] was tested, and the “% of control remaining” value was 86.7135.
For `CC1=NN(c2ccc(S(N)(=O)=O)cc2)C(=O)/C1=C\c1ccc(-c2ccc(Cl)c([N+](=O)[O-])c2)o1` [CBK263612], the “% of control remaining” value was 98.6805.
In the case of `CCCn1cc(CN2CC3C[C@@H](O)CN3C[C@@H]2C)c2ccccc21` (stereo partly shown) [CBK285466], the “% of control remaining” value is reported as 66.1967.
`Cc1ccccc1C(=O)NC(=S)NCCN1CCOCC1` [CBK288475] was tested, and the “% of control remaining” value was 47.5076.
In the case of `C[C@@H](Cn1nc2c(cc1=O)CCCC2)NC(=O)Cc1cccc(F)c1` [CBK284527], the “% of control remaining” value is reported as 86.1815.
`O=C(Oc1ccc(-c2cnc3ccccc3n2)cc1)c1ccc(S(=O)(=O)N2CCCCC2)cc1` [CBK267812] was tested, and the “% of control remaining” value was 116.695.
`O[C@@]1(c2ccccn2)CC[C@H]2CN(CC3CCCCC3)C[C@H]21` [CBK282996] was tested, and the “% of control remaining” value was 107.139.
For `CCC(CC)C(=O)N1CCn2c(nnc2-c2cncc(Br)c2)C1` [CBK304409], the “% of control remaining” value was 70.3298.
With `CCCCNc1ncncc1-c1ccc(Br)cc1` [CBK005014C] the “% of control remaining” value was 55.1943.
`O=C(c1nccs1)C1CCN(C(=O)c2cc(F)cc(F)c2)CC1` [CBK284200] was tested, and the “% of control remaining” value was 78.4455.
With `O=C1NC(CCSC2=NCN=N2)Oc2ccccc21` (stereo not shown) [CBK009148] the “% of control remaining” value was 39.5338.
In the case of `NC(=O)C1CCCN(S(=O)(=O)c2ccc(S(N)(=O)=O)cc2)C1` (stereo not shown) [CBK266312], the “% of control remaining” value is reported as 125.151.
`O=C1CCC(=O)N1CCOc1nccnc1N1CCN(CCc2c[nH]c3ccccc23)CC1` [CBK084304] was tested, and the “% of control remaining” value was 0.08272.
